PubChem BioAssay AID651820 (National Center for Advancing Translational Sciences (NCATS), 2012)
Screen size: about 340,000 compounds; about 12,000 (3.5%) were called active. The shares of active, inactive and inconclusive entries below differ from those in the screen. The call rests on the fitted dose curve; in most records, active means well fitted inhibition curve with a large enough effect; inconclusive means small, poorly fitted or top-dose-only effect, or another doubt; inactive means no such curve, though single readings can be large or run the other way. Potencies of inconclusive entries are left out as doubtful fits.

Test: qHTS Assay for Inhibitors of Hepatitis C Virus (HCV)
Details: Huh7.5.1 HCVcc-Cre (HCVcc is cell-culture hepatitis C virus) infection, luciferase reporter, 44 h; activity change, negative = inhibition: at 41.8 µM (top of the series) unless noted
Summary of the method: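 Compounds are dispensed onto cells plated 4 h earlier at 1,000 per well, with HCVcc-Cre virus (about 0.5 moi) added next. Following 44 h of culture, luminescent signal is measured for 15 sec after 15 min with substrate at room temperature.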
On the % scale 0 is the no-effect control and ±100 the full control effect; potency means the concentration at half of the fitted maximal effect; tags describe the fitted curve by direction and shape.

Row | SMILES | Potency | activity change, negative = inhibition
1 | Brc1ccc(OCc2cn3ccccc3n2)cc1 | inconclusive [inhibitor, single point] | 
2 | Cc1ccc(/C=C2\SC(N3CCN(C(c4ccccc4)c4ccccc4)CC3)=NC2=O)o1 | inconclusive [inhibitor, partial curve] | 
3 | O=[N+]([O-])c1ccc2c(c1)ncn2-c1ccccc1 | inconclusive [inhibitor, partial curve, poor fit] | 
4 | CC1=C(O)C(=O)C=C2C1=CC=C1C2(C)CCC2(C)C3CC(C)(C(=O)O)CCC3(C)CCC12C (stereo not drawn) | inconclusive [inhibitor, full curve] | 
5 | NNC(=O)C1CC1c1ccccc1 (stereo not drawn) |  | inactive: 38.1%
6 | O=C(NC(=S)Nc1cccc(NC(=O)c2ccc(Cl)cc2Cl)c1)c1cccs1 | inconclusive [inhibitor, full curve] | 
7 | Cc1cc(C)cc(NC(=O)CSCc2cnn(-c3ccccc3)c2-n2cccc2)c1 | inconclusive [inhibitor, partial curve] | 
8 | COc1ccc(C2CC(c3ccccc3)=NN2C(=O)COC(=O)c2cccc(O)c2)cc1 (stereo not drawn) | inconclusive [inhibitor, single point] | 
9 | COc1ccc(CNCC(O)COCc2cccs2)cc1 (stereo not drawn) |  | inactive: 8.75%
10 | COc1ccccc1CCCNC(=O)C1CCC(=O)N(CCc2ccc(Cl)cc2)C1 (stereo not drawn) | inconclusive [inhibitor, partial curve] | 
11 | COC(=O)/C=C/c1ccc2c(c1)S(=O)(=O)N(Cc1ccc(OC)cc1)[C@H]2CC(=O)OC |  | inactive: 21.3%
12 | Cc1ccc(CNC(=O)[C@H](C)NC(=O)C2CCN(C(=O)[C@@H]3CCCN3C(=O)OC(C)(C)C)CC2)cc1 | inconclusive [inhibitor, single point] | 
13 | Cc1ccc(NS(=O)(=O)c2ccc(-c3ccc(=O)[nH]n3)o2)cc1Cl |  | inactive: 15.8%
14 | COc1ccc(CN(C)C(=O)COC(=O)c2ccc(-c3ccccc3)cc2)c(OC)c1OC |  | inactive: -21.7%
15 | O=S(=O)(Nc1cccc(-n2cnnn2)c1)c1ccccc1F |  | inactive: -1.52%
16 | CCOC(=O)c1cnc(NCc2ccccc2)nc1C | inconclusive [inhibitor, single point] | 
17 | COc1ccc(/C=C(\NC(=O)c2ccc(OCC(C)C)cc2)C(=O)OCc2ccco2)cc1 | inconclusive [inhibitor, single point] | 
18 | CCOC(=O)c1nn(-c2ccccc2C)c(=O)c2c(N)scc12 | inconclusive [inhibitor, partial curve] | 
19 | CC(C)CC1C2C(=O)N(c3ccccc3)C(=O)C2ON1c1ccccc1 (stereo not drawn) |  | inactive: 7.76%
20 | COc1ccc(NS(=O)(=O)c2cc(NC(=O)COc3ccc(OC)cc3)ccc2N2CCOCC2)cc1 | inconclusive [inhibitor, single point] | 
21 | O=C1OCCC1Sc1nc2cc(Cl)ccc2s1 (stereo not drawn) | inconclusive [inhibitor, single point] | 
22 | CCc1cc[n+](C(C(=S)Nc2cccc(C)c2)=C([O-])c2ccc(C)c([N+](=O)[O-])c2)cc1 | inconclusive [inhibitor, single point] | 

Row | SMILES | Potency | activity change, negative = inhibition
23 | Cc1ccc(NC(=O)CSc2nnc(NC(=O)c3ccc(S(=O)(=O)N4CCOCC4)cc3)s2)cc1 |  | inactive: 27.9%
24 | O=C(Nc1cccc(S(=O)(=O)N2CCOCC2)c1)c1ccc(N2CCOCC2)c([N+](=O)[O-])c1 | inconclusive [inhibitor, full curve] | 
25 | Cc1cccc(NC(=O)COc2ccccc2C)n1 | inconclusive [inhibitor, partial curve, poor fit] | 
26 | CC(C)Cn1c(N)c(C(=O)COC(=O)COc2cccc(C(F)(F)F)c2)c(=O)n(C)c1=O |  | inactive: -1.43%
27 | Cc1ccc(S(=O)(=O)N(CC(=O)Nc2cccnc2)c2ccc(Br)cc2)cc1 | inconclusive [inhibitor, single point] | 
28 | Cc1csc(=O)n1CCC(=O)NCc1ccc(F)cc1 |  | inactive: -13.9%
29 | Cc1nn(-c2ccccc2)c(Cl)c1C(=O)NNC(=O)c1ccccc1O | active: 10 µM | 
30 | Clc1ccc(Oc2nc(Oc3ccc(Cl)cc3)nc(N3CCOCC3)n2)cc1 | inconclusive [inhibitor, single point] | 
31 | CCOC(=O)c1[nH]c(C)c(C(=O)Nc2ccc(C)cc2C)c1C | inconclusive [inhibitor, full curve] | 
32 | Cc1cnc(NC(=O)CN2CCN(c3ccccn3)CC2)s1 | inconclusive [inhibitor, full curve] | 
33 | CCOC(=O)c1ccc(S(=O)(=O)Nc2ccc3cn[nH]c3c2)cc1 | active: 11.2 µM | 
34 | CC1CCc2c(sc3ncn(N)c(=N)c23)C1 (stereo not drawn) | inconclusive [inhibitor, partial curve] | 
35 | O=C(Nc1cccc(-c2nc3ncccc3o2)c1)c1sc2ccccc2c1Cl | inconclusive [inhibitor, partial curve] | 
36 | Cc1cc(-n2c(C)cc(C(=O)COc3ccc4ccc(=O)oc4c3)c2C)no1 | inconclusive [inhibitor, single point] | 
37 | CCCCNc1c(-c2ccc(-c3cccc(Cl)c3)cc2)nc2ccc(Cl)cn12 | inconclusive [inhibitor, single point] | 
38 | CNC(=S)NN=C(C)c1ccc(OC)cc1O | inconclusive [inhibitor, full curve, poor fit] | 
39 | COc1cc(/C=C/C(=O)OCC(=O)NC(=O)NC(C)C)cc(S(=O)(=O)N2CCc3ccccc32)c1OC | inconclusive [inhibitor, partial curve] | 
40 | C[C@]12CC[C@H]3[C@@H](CCC4=CC(=O)CC[C@@H]43)[C@@H]1CC[C@@H]2O | inconclusive [inhibitor, partial curve, poor fit] | 
41 | Cc1ccc(C(=O)NC2CCCc3ccccc32)cc1[N+](=O)[O-] (stereo not drawn) | inconclusive [inhibitor, single point] | 
42 | Cc1ccccc1NC(=O)C(=O)N/N=C/c1cccc(Br)c1 |  | inactive: 12.8%
43 | C=CCNC(=O)c1ccc(CSc2nc3ccccc3s2)cc1 | inconclusive [inhibitor, partial curve, poor fit] | 
